# This is one part of the list.
# Target: T1, MBP-FoxP1dN (Mus musculus, UniProt P58462 326-579)
# T1 sequence: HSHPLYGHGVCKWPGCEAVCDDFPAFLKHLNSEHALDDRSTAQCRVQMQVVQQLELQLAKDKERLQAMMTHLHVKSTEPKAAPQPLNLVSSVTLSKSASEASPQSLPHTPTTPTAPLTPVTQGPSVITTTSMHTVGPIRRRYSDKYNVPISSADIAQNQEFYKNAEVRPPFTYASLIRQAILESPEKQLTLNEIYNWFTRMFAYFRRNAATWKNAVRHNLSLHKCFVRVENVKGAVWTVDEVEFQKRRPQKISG
# Experiment: PD-seq (MBP pull-down with sequencing); 20 mM Tris-HCl pH 7.5, 100 mM NaCl, 1.5 mM MgCl2, 0.4 uM protein, 0.1 uM dsDNA library, 30 min, room temperature, amylose pull-down; high values mean tight binding
# Settings: protein: recombinant; tags: His6-MBP; chain copies: 2; dsDNA, one strand shown
# How it was run: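 Binding is given as reads-per-million enrichment, pull-down over input, with replicates pooled. The bait was an N-terminus-lacking mouse FoxP3 or FoxP1 fragment with a His6-MBP tag, expressed in E. coli and used at 0.4 µM with 0.1 µM Klenow-filled degenerate double-stranded DNA library for 30 min at room temperature in Tris pH 7.5 buffer with NaCl and MgCl2. Amylose resin pull-down with three washes was followed by proteinase K release, PCR barcoding and Illumina sequencing.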
row,Sequence,binding signal
1,GATGATTGTTCTCCCAGCTGATGAATTTTCCTGTTCGAGTAAACAAATTTTCCTAATCTTTCTGTTCAAGCGCCATCTAC,0.877 RPM ratio (pull-down/input)
2,GATGATTGTTCTCCCAGCTGATGAATTAAAGCTATCGAGTAAACAAATTTTCCTAATCTTTCTGTTCAAGCGCCATCTAC,0.951 RPM ratio (pull-down/input)
3,GATGATTGTTCTCCCAGCTGATGAATTCCAGTGCTCGAGTAAACAAATTTTCCTAATCTTTCTGTTCAAGCGCCATCTAC,0.775 RPM ratio (pull-down/input)
4,GATGATTGTTCTCCCAGCTGATGAATTAATATACTCGAGTAAACAAATTTTCCTAATCTTTCTGTTCAAGCGCCATCTAC,1.04 RPM ratio (pull-down/input)
5,GATGATTGTTCTCCCAGCTGATGAATTAAGAGGTTCGAGTAAACAAATTTTCCTAATCTTTCTGTTCAAGCGCCATCTAC,0.904 RPM ratio (pull-down/input)
6,GATGATTGTTCTCCCAGCTGATGAATTCAGGCGTTCGAGTAAACAAATTTTCCTAATCTTTCTGTTCAAGCGCCATCTAC,0.924 RPM ratio (pull-down/input)
7,GATGATTGTTCTCCCAGCTGATGAATTGAGGGCATCGAGTAAACAAATTTTCCTAATCTTTCTGTTCAAGCGCCATCTAC,0.951 RPM ratio (pull-down/input)
8,GATGATTGTTCTCCCAGCTGATGAATTCCGACTCTCGAGTAAACAAATTTTCCTAATCTTTCTGTTCAAGCGCCATCTAC,0.843 RPM ratio (pull-down/input)
9,GATGATTGTTCTCCCAGCTGATGAATTAAGGCGATCGAGTAAACAAATTTTCCTAATCTTTCTGTTCAAGCGCCATCTAC,0.912 RPM ratio (pull-down/input)
10,GATGATTGTTCTCCCAGCTGATGAATTGCATTGATCGAGTAAACAAATTTTCCTAATCTTTCTGTTCAAGCGCCATCTAC,1.25 RPM ratio (pull-down/input)
11,GATGATTGTTCTCCCAGCTGATGAATTAGACATTTCGAGTAAACAAATTTTCCTAATCTTTCTGTTCAAGCGCCATCTAC,1.02 RPM ratio (pull-down/input)
12,GATGATTGTTCTCCCAGCTGATGAATTTCGCTATTCGAGTAAACAAATTTTCCTAATCTTTCTGTTCAAGCGCCATCTAC,0.945 RPM ratio (pull-down/input)
13,GATGATTGTTCTCCCAGCTGATGAATTACTGAGTTCGAGTAAACAAATTTTCCTAATCTTTCTGTTCAAGCGCCATCTAC,0.998 RPM ratio (pull-down/input)
14,GATGATTGTTCTCCCAGCTGATGAATTACTTCGCTCGAGTAAACAAATTTTCCTAATCTTTCTGTTCAAGCGCCATCTAC,1.01 RPM ratio (pull-down/input)
15,GATGATTGTTCTCCCAGCTGATGAATTTGTAATGTCGAGTAAACAAATTTTCCTAATCTTTCTGTTCAAGCGCCATCTAC,1.26 RPM ratio (pull-down/input)
16,GATGATTGTTCTCCCAGCTGATGAATTGGGGGCTTCGAGTAAACAAATTTTCCTAATCTTTCTGTTCAAGCGCCATCTAC,0.816 RPM ratio (pull-down/input)
17,GATGATTGTTCTCCCAGCTGATGAATTTATATTGTCGAGTAAACAAATTTTCCTAATCTTTCTGTTCAAGCGCCATCTAC,2.36 RPM ratio (pull-down/input)
18,GATGATTGTTCTCCCAGCTGATGAATTAAATCGCTCGAGTAAACAAATTTTCCTAATCTTTCTGTTCAAGCGCCATCTAC,0.914 RPM ratio (pull-down/input)
19,GATGATTGTTCTCCCAGCTGATGAATTAGCGAGTTCGAGTAAACAAATTTTCCTAATCTTTCTGTTCAAGCGCCATCTAC,0.871 RPM ratio (pull-down/input)
20,GATGATTGTTCTCCCAGCTGATGAATTAAGCGCCTCGAGTAAACAAATTTTCCTAATCTTTCTGTTCAAGCGCCATCTAC,0.975 RPM ratio (pull-down/input)
21,GATGATTGTTCTCCCAGCTGATGAATTCCACCGTTCGAGTAAACAAATTTTCCTAATCTTTCTGTTCAAGCGCCATCTAC,0.784 RPM ratio (pull-down/input)

row,Sequence,binding signal
1,GATGATTGTTCTCCCAGCTGATGAATTAGTTTACTCGAGTAAACAAATTTTCCTAATCTTTCTGTTCAAGCGCCATCTAC,1.5 RPM ratio (pull-down/input)
2,GATGATTGTTCTCCCAGCTGATGAATTACGGATTTCGAGTAAACAAATTTTCCTAATCTTTCTGTTCAAGCGCCATCTAC,1.08 RPM ratio (pull-down/input)
3,GATGATTGTTCTCCCAGCTGATGAATTCCCGCACTCGAGTAAACAAATTTTCCTAATCTTTCTGTTCAAGCGCCATCTAC,0.813 RPM ratio (pull-down/input)
4,GATGATTGTTCTCCCAGCTGATGAATTTCAGACTTCGAGTAAACAAATTTTCCTAATCTTTCTGTTCAAGCGCCATCTAC,0.745 RPM ratio (pull-down/input)
5,GATGATTGTTCTCCCAGCTGATGAATTCGGGAGGTCGAGTAAACAAATTTTCCTAATCTTTCTGTTCAAGCGCCATCTAC,0.695 RPM ratio (pull-down/input)
6,GATGATTGTTCTCCCAGCTGATGAATTGTATTACTCGAGTAAACAAATTTTCCTAATCTTTCTGTTCAAGCGCCATCTAC,1.24 RPM ratio (pull-down/input)
7,GATGATTGTTCTCCCAGCTGATGAATTGATGGAATCGAGTAAACAAATTTTCCTAATCTTTCTGTTCAAGCGCCATCTAC,1.02 RPM ratio (pull-down/input)
8,GATGATTGTTCTCCCAGCTGATGAATTATCGTGTTCGAGTAAACAAATTTTCCTAATCTTTCTGTTCAAGCGCCATCTAC,1.08 RPM ratio (pull-down/input)
9,GATGATTGTTCTCCCAGCTGATGAATTTTGTCCCTCGAGTAAACAAATTTTCCTAATCTTTCTGTTCAAGCGCCATCTAC,0.963 RPM ratio (pull-down/input)
10,GATGATTGTTCTCCCAGCTGATGAATTAGCCTCGTCGAGTAAACAAATTTTCCTAATCTTTCTGTTCAAGCGCCATCTAC,0.811 RPM ratio (pull-down/input)
11,GATGATTGTTCTCCCAGCTGATGAATTATTGTTTTCGAGTAAACAAATTTTCCTAATCTTTCTGTTCAAGCGCCATCTAC,2.83 RPM ratio (pull-down/input)
12,GATGATTGTTCTCCCAGCTGATGAATTTAAAACGTCGAGTAAACAAATTTTCCTAATCTTTCTGTTCAAGCGCCATCTAC,0.858 RPM ratio (pull-down/input)
13,GATGATTGTTCTCCCAGCTGATGAATTGTTACGATCGAGTAAACAAATTTTCCTAATCTTTCTGTTCAAGCGCCATCTAC,1.24 RPM ratio (pull-down/input)
14,GATGATTGTTCTCCCAGCTGATGAATTGTGCCGATCGAGTAAACAAATTTTCCTAATCTTTCTGTTCAAGCGCCATCTAC,1 RPM ratio (pull-down/input)
15,GATGATTGTTCTCCCAGCTGATGAATTGCTCCCTTCGAGTAAACAAATTTTCCTAATCTTTCTGTTCAAGCGCCATCTAC,0.934 RPM ratio (pull-down/input)
16,GATGATTGTTCTCCCAGCTGATGAATTCCCCTCGTCGAGTAAACAAATTTTCCTAATCTTTCTGTTCAAGCGCCATCTAC,0.809 RPM ratio (pull-down/input)
17,GATGATTGTTCTCCCAGCTGATGAATTAATGCGCTCGAGTAAACAAATTTTCCTAATCTTTCTGTTCAAGCGCCATCTAC,1.26 RPM ratio (pull-down/input)
18,GATGATTGTTCTCCCAGCTGATGAATTTATGCCATCGAGTAAACAAATTTTCCTAATCTTTCTGTTCAAGCGCCATCTAC,1.23 RPM ratio (pull-down/input)
19,GATGATTGTTCTCCCAGCTGATGAATTGTATTAGTCGAGTAAACAAATTTTCCTAATCTTTCTGTTCAAGCGCCATCTAC,1.3 RPM ratio (pull-down/input)
20,GATGATTGTTCTCCCAGCTGATGAATTGTTAACTTCGAGTAAACAAATTTTCCTAATCTTTCTGTTCAAGCGCCATCTAC,1.1 RPM ratio (pull-down/input)
21,GATGATTGTTCTCCCAGCTGATGAATTCGGCCAGTCGAGTAAACAAATTTTCCTAATCTTTCTGTTCAAGCGCCATCTAC,0.767 RPM ratio (pull-down/input)

row,Sequence,binding signal
1,GATGATTGTTCTCCCAGCTGATGAATTCTGTTCTTCGAGTAAACAAATTTTCCTAATCTTTCTGTTCAAGCGCCATCTAC,0.815 RPM ratio (pull-down/input)
2,GATGATTGTTCTCCCAGCTGATGAATTGCAAGTGTCGAGTAAACAAATTTTCCTAATCTTTCTGTTCAAGCGCCATCTAC,1.22 RPM ratio (pull-down/input)
3,GATGATTGTTCTCCCAGCTGATGAATTAACAGGATCGAGTAAACAAATTTTCCTAATCTTTCTGTTCAAGCGCCATCTAC,0.932 RPM ratio (pull-down/input)
4,GATGATTGTTCTCCCAGCTGATGAATTTTGTCTTTCGAGTAAACAAATTTTCCTAATCTTTCTGTTCAAGCGCCATCTAC,1.05 RPM ratio (pull-down/input)
5,GATGATTGTTCTCCCAGCTGATGAATTAAACCGATCGAGTAAACAAATTTTCCTAATCTTTCTGTTCAAGCGCCATCTAC,0.891 RPM ratio (pull-down/input)
6,GATGATTGTTCTCCCAGCTGATGAATTGGAGCAGTCGAGTAAACAAATTTTCCTAATCTTTCTGTTCAAGCGCCATCTAC,0.783 RPM ratio (pull-down/input)
7,GATGATTGTTCTCCCAGCTGATGAATTGTTCCGTTCGAGTAAACAAATTTTCCTAATCTTTCTGTTCAAGCGCCATCTAC,1.08 RPM ratio (pull-down/input)
8,GATGATTGTTCTCCCAGCTGATGAATTGTACGGGTCGAGTAAACAAATTTTCCTAATCTTTCTGTTCAAGCGCCATCTAC,0.837 RPM ratio (pull-down/input)
9,GATGATTGTTCTCCCAGCTGATGAATTCTGCATGTCGAGTAAACAAATTTTCCTAATCTTTCTGTTCAAGCGCCATCTAC,0.963 RPM ratio (pull-down/input)
10,GATGATTGTTCTCCCAGCTGATGAATTCTGCGGCTCGAGTAAACAAATTTTCCTAATCTTTCTGTTCAAGCGCCATCTAC,0.754 RPM ratio (pull-down/input)
11,GATGATTGTTCTCCCAGCTGATGAATTTAACCCCTCGAGTAAACAAATTTTCCTAATCTTTCTGTTCAAGCGCCATCTAC,0.853 RPM ratio (pull-down/input)
12,GATGATTGTTCTCCCAGCTGATGAATTTCACGGATCGAGTAAACAAATTTTCCTAATCTTTCTGTTCAAGCGCCATCTAC,0.824 RPM ratio (pull-down/input)
13,GATGATTGTTCTCCCAGCTGATGAATTGGTCAGTTCGAGTAAACAAATTTTCCTAATCTTTCTGTTCAAGCGCCATCTAC,0.871 RPM ratio (pull-down/input)
14,GATGATTGTTCTCCCAGCTGATGAATTAGCCTAATCGAGTAAACAAATTTTCCTAATCTTTCTGTTCAAGCGCCATCTAC,0.969 RPM ratio (pull-down/input)
15,GATGATTGTTCTCCCAGCTGATGAATTCGCAAGCTCGAGTAAACAAATTTTCCTAATCTTTCTGTTCAAGCGCCATCTAC,0.781 RPM ratio (pull-down/input)
16,GATGATTGTTCTCCCAGCTGATGAATTGCAAAACTCGAGTAAACAAATTTTCCTAATCTTTCTGTTCAAGCGCCATCTAC,1.32 RPM ratio (pull-down/input)
17,GATGATTGTTCTCCCAGCTGATGAATTATTTGCATCGAGTAAACAAATTTTCCTAATCTTTCTGTTCAAGCGCCATCTAC,1.89 RPM ratio (pull-down/input)
18,GATGATTGTTCTCCCAGCTGATGAATTGGTGTTCTCGAGTAAACAAATTTTCCTAATCTTTCTGTTCAAGCGCCATCTAC,1.05 RPM ratio (pull-down/input)
19,GATGATTGTTCTCCCAGCTGATGAATTCCCAACATCGAGTAAACAAATTTTCCTAATCTTTCTGTTCAAGCGCCATCTAC,1.3 RPM ratio (pull-down/input)
20,GATGATTGTTCTCCCAGCTGATGAATTTGGATGATCGAGTAAACAAATTTTCCTAATCTTTCTGTTCAAGCGCCATCTAC,0.889 RPM ratio (pull-down/input)
21,GATGATTGTTCTCCCAGCTGATGAATTGGTTCTTTCGAGTAAACAAATTTTCCTAATCTTTCTGTTCAAGCGCCATCTAC,1.04 RPM ratio (pull-down/input)

# From publication PMC12820563, “FoxP3 forms a head-to-head dimer in vivo and stabilizes its multimerization on adjacent microsatellites”
